{
  "source": "PubChem BioAssay AID2147",
  "about": "(National Center for Advancing Translational Sciences (NCATS), 2009)",
  "note": "Values joined by “and” are separate entries in the source; they are usually repeats but may differ in a detail not shown here. Equal values may be shown once. In all, about 230,000 compounds went through this assay and about 3,600 (1.6%) were called active. This list was built around the results that the source calls inconclusive (neither active nor inactive); the mix of calls is not that of the screen. Calls come from the whole dose curve; as a rule, active = well fitted inhibition curve with a large enough effect (not every such curve was filed as active); inconclusive = small, poorly fitted or top-dose-only effect, or another doubt; inactive = no such curve, though single readings can be large or run the other way. Potencies beside an inconclusive call are fits to weak or partial responses and may not hold up. Note: nearly all actives have a fitted effect of over 50% in size. Potency is the fitted concentration of half-maximal effect; tags give direction and shape of the fitted curve.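 Throughout, for activity change, negative = inhibition: 0% = wells with enzyme and -100% = buffer wells without enzyme.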",
  "data": [
    {"biological_target": "Lysine-specific demethylase 4E (Homo sapiens) (UniProt B2RXH2)", "sequence (B2RXH2 whole entry, looked up, the tested form may be a part)": "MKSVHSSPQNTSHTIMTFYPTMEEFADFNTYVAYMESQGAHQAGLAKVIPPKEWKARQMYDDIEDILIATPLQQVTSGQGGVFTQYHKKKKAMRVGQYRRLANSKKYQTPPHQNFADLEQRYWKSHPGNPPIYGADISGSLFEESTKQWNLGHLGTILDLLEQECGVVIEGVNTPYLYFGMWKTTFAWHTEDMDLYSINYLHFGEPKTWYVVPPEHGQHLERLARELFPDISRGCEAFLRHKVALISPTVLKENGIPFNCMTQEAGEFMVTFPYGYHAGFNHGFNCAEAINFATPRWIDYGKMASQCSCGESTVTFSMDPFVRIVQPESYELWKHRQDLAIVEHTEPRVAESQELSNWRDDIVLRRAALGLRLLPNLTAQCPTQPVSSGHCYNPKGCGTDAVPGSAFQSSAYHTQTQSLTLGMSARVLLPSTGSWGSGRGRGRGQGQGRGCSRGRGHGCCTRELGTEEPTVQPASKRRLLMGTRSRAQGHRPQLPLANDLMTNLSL", "test": "qHTS Assay for Inhibitors of Human Jumonji Domain Containing 2E (JMJD2E)", "details": "JMJD2E catalytic domain, FDH-coupled NADH fluorescence (FDH is formaldehyde dehydrogenase); series mostly up to 57.1 µM; activity change, negative = inhibition: at the top concentration", "values": [
      {"smiles": "CC(C)(C)c1ccc(S(=O)(=O)/C=C\\C#N)cc1", "Potency": "inconclusive: 28.2 µM [inhibitor, partial curve, poor fit]"},
      {"smiles": "CS(=O)(=O)c1ccc2nc(NC(=O)Nc3ccc(Cl)cc3)sc2c1", "Potency": "inconclusive: 28.2 µM [inhibitor, single point]"},
      {"smiles": "COc1ccc(C(=O)/C=C/Nc2ccc(S(=O)(=O)Nc3cccc(C(C)=O)c3)cc2)cc1", "Potency": "inconclusive: 25.1 µM [inhibitor, partial curve]"},
      {"smiles": "CCOc1ccccc1NC(=O)C(=O)N/N=C/c1cc(Br)ccc1O", "Potency": "inconclusive: 25.1 µM [inhibitor, single point]"},
      {"smiles": "COc1ccc(-c2cc([C@H]3[C@@H]4C=CCC[C@@]4(C)C(=O)N3Cc3ccccc3)ccc2F)cc1OC", "Potency": "inconclusive: 39.8 µM [inhibitor, single point]"},
      {"smiles": "CCCOc1ccc(/C(O)=C2/C(=O)C(=O)N(CCCN3CCOCC3)C2c2ccncc2)cc1", "note": "(stereo unspecified)", "Potency": "inconclusive: 25.1 µM [inhibitor, partial curve]"},
      {"smiles": "CCCC(=O)Nc1ccc(Oc2ccc(NC(=O)CCC)cc2)cc1", "activity change, negative = inhibition": "inactive: 5.45%"},
      {"smiles": "COc1cccc(NC(=O)CC2SC(=Nc3ccccc3)NC2=O)c1", "note": "(stereo unspecified)", "activity change, negative = inhibition": "inactive: 2.86%"},
      {"smiles": "COC(=O)c1cc2ccccc2c(-c2c(OC)c(C(=O)OC)cc3ccccc23)c1OC", "Potency": "inconclusive: 31.6 µM [inhibitor, partial curve]"},
      {"smiles": "CCN(CC)C(=O)CSc1nc(N)c(C#N)c(-c2cccs2)c1C#N", "Potency": "inconclusive: 35.5 µM [inhibitor, single point]"},
      {"smiles": "CCOc1ccc(OCc2ccc(C(=O)Nc3ccc(Cl)cn3)o2)cc1", "Potency": "inconclusive: 39.8 µM [inhibitor, single point]"},
      {"smiles": "CC[N+](CC)(CC)CCOc1ccc(/C=C\\c2ccccc2)cc1", "Potency": "active: 25.1 µM"},
      {"smiles": "CCOc1ccc(-n2nc3c(=O)[nH]nc(C)c3c2C)cc1", "Potency": "inconclusive: 28.2 µM [inhibitor, partial curve]"},
      {"smiles": "COc1ccc(-c2nc(C#N)c(N3CCC(C(N)=O)CC3)o2)cc1", "Potency": "inconclusive: 28.2 µM [inhibitor, partial curve]"},
      {"smiles": "CSc1ccc(Cl)c(C(=O)NC2CCCC2)c1", "activity change, negative = inhibition": "inactive: 3.31%"},
      {"smiles": "O=C(O)c1cc(=O)[nH]c2c(Cl)cccc12", "Potency": "inconclusive: 39.8 µM [inhibitor, single point]"},
      {"smiles": "COc1ccc(N/N=C(\\C#N)C(=O)NCCc2ccc(OC)c(OC)c2)cc1", "activity change, negative = inhibition": "inactive: -15.3%"},
      {"smiles": "COc1ccc(-c2oc(NC(=O)CSc3nncn3C)c(C#N)c2-c2ccc(OC)cc2)cc1", "Potency": "inconclusive: 39.8 µM [inhibitor, single point]"},
      {"smiles": "COc1ccc(/C=C/C(=O)Oc2ccc(/C=N/NC(=O)c3ccccc3)cc2)cc1OC", "activity change, negative = inhibition": "inactive: -17.6%"},
      {"smiles": "CCOC(=O)c1c(CCl)nc2ccccc2c1-c1ccccc1", "Potency": "inconclusive: 35.5 µM [inhibitor, single point]"},
      {"smiles": "NCC1OC(n2cnc3c(=O)[nH]c(N)nc32)C(O)C1O", "note": "(stereo unspecified)", "Potency": "inconclusive: 28.2 µM [inhibitor, single point]"},
      {"smiles": "CC(=O)N1N=C(c2ccc(Br)cc2)OC1(C)CC(=O)Nc1ccccc1", "note": "(stereo unspecified)", "Potency": "inconclusive: 31.6 µM [inhibitor, partial curve]"},
      {"smiles": "NC(=O)c1ccsc1NC(=O)c1ccc(S(=O)(=O)N2CCCc3ccccc32)cc1", "Potency": "inconclusive: 8.91 µM [inhibitor, single point]"},
      {"smiles": "Cn1c(=O)c(C(=O)COC(=O)c2cc(-c3ccccc3)nc3ccccc23)c(N)n(Cc2ccccc2)c1=O", "Potency": "inconclusive: 12.6 µM [inhibitor, partial curve] and inconclusive: 28.2 µM [inhibitor, partial curve]"},
      {"smiles": "COc1ccccc1NC(c1cccnc1)c1ccc2cccnc2c1O", "note": "(stereo unspecified)", "Potency": "active: 11.2 µM"},
      {"smiles": "COc1ccc(OC)c(/C=C/C(=O)Nc2cccc(S(=O)(=O)N3CCCC3)c2)c1", "Potency": "inconclusive: 28.2 µM [inhibitor, partial curve]"},
      {"smiles": "Cc1nn(-c2ccccc2)nc1C(N)=O", "Potency": "inconclusive: 28.2 µM [inhibitor, partial curve]"},
      {"smiles": "CCOC(=O)N1CCN(c2nc3ccc(C(=O)c4ccccc4)cc3n3cnnc23)CC1", "Potency": "inconclusive: 39.8 µM [inhibitor, single point]"},
      {"smiles": "Cc1nc(N2CCOCC2)c2nc(-c3ccccc3)n(CCN3CCCCC3)c2n1", "Potency": "inconclusive: 25.1 µM [inhibitor, partial curve]"},
      {"smiles": "O=C(c1ccc(Br)cc1)C1CCc2occc2C1=O", "note": "(stereo unspecified)", "Potency": "inconclusive: 39.8 µM [inhibitor, single point]"},
      {"smiles": "[O-]/C(=C(\\C(=S)Nc1cccc2ccccc12)[n+]1ccccc1)c1ccc(Cl)s1", "activity change, negative = inhibition": "inactive: 8.29%"},
      {"smiles": "CCOC(=O)C(C(=O)OCC)c1cc(Br)c2noc3c2c1C(=O)c1ccccc1-3", "Potency": "inconclusive: 0.141 µM [inhibitor, full curve]"},
      {"smiles": "Cc1cc(C=NCCO)c(C)n1-c1cc(Cl)ccc1Cl", "Potency": "inconclusive: 35.5 µM [inhibitor, single point]"},
      {"smiles": "Cc1ccc(OCC(=O)NNC(=O)C2CCN(c3nccc(C)n3)CC2)cc1", "Potency": "inconclusive: 28.2 µM [inhibitor, partial curve]"},
      {"smiles": "CCOC(=O)c1cc2c(ccc3ccccc32)oc1=O", "Potency": "inconclusive: 25.1 µM [inhibitor, partial curve]"},
      {"smiles": "COc1ccc(O)c(/C=C(\\C#N)C(=O)Nc2cccnc2)c1", "Potency": "inconclusive: 22.4 µM [inhibitor, partial curve]"},
      {"smiles": "C=COC(=O)CSc1nc(-c2cccs2)ccc1C#N", "Potency": "inconclusive: 31.6 µM [inhibitor, partial curve]"},
      {"smiles": "CC(=O)c1ccc(N2C(=O)[C@@H]3[C@H](C2=O)[C@H]2c4ccccc4C=NN2[C@@H]3C(C)=O)cc1", "Potency": "inconclusive: 35.5 µM [inhibitor, single point]"},
      {"smiles": "CCOC(=O)c1ccccc1NC(=O)c1c(O)c2ccccc2n(CC)c1=O", "Potency": "inconclusive: 28.2 µM [inhibitor, partial curve]"},
      {"smiles": "CCc1c(C)c2ccc(OCC(=O)OC)cc2oc1=O", "Potency": "inconclusive: 31.6 µM [inhibitor, partial curve]"},
      {"smiles": "CC(=O)Nc1ccc(S(=O)(=O)CCC(=O)O)cc1", "Potency": "inconclusive: 8.91 µM [inhibitor, single point]"}
    ]}
  ]
}
